Assay results reported in the supplement of paper PMC6206098.
± gives the uncertainty stated by the source. Shown are siRNA guide strands that differ only in the seed, positions 2 to 7.

What was measured:
3LL = assay: cell viability relative to siNT1 control; higher = less toxic; conditions: concentration: 10 nM; 96 h; Mus musculus;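 note: Luminescence-based viability of cells reverse transfected in 384-well plates with lipid-complexed siRNAs built on a non-toxic 19mer backbone whose passenger strand carries 2′-O-methyl groups at positions 1 and 2, triplicates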
M565 = assay: cell viability relative to lipid-only control; HeyA8 human ovarian and H460 human lung cancer; M565 mouse liver and 3LL mouse lung cancer; siNT1 is a non-toxic control siRNA; higher = less toxic; conditions: concentration: 10 nM; 96 h; Mus musculus
Method: (§1)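 Arrayed screen of 4096 siRNA duplexes, each carrying one of all possible 6mer seeds at guide-strand positions 2-7 in a fixed neutral 19mer scaffold (constant flanks: U at position 1, then ACAUGUAAACCA, plus a 3' AA overhang). The passenger strand is 2'-O-methylated at positions 1-2 so only the guide strand loads into RISC. Duplexes were reverse-transfected at 10 nM with RNAiMAX in triplicate in 384-well plates; viability was read by CellTiter-Glo ATP content 96 h after transfection. Values are % viability normalised to lipid-only wells (HeyA8, H460, M565) or to siNT1 (3LL).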

HeyA8 = assay: as above; conditions: concentration: 10 nM; 96 h; Homo sapiens
Method: as §1

H460 = assay: as above; conditions: concentration: 10 nM; 96 h; Homo sapiens
Method: as §1
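Throughout, for cell viability relative to lipid-only control: reverse lipid transfection in 384-well plates, in triplicate, of duplexes on a non-toxic 19mer backbone with passenger strand 2′-O-methylated at positions 1 and 2, luminescence viability read-out.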

UAAUUGCACAUGUAAACCAAA was tested, and the cell viability (3LL) was 17.4 ± 5.8%, the cell viability (M565) was 21.7 ± 6.9% and the cell viability (HeyA8) was 49 ± 2%. For the same sequence, the cell viability (H460) was 46.4 ± 4.9%.

Sequence UACCGGUACAUGUAAACCAAA has a cell viability (3LL) of 66 ± 4.5%, a cell viability (M565) of 47 ± 6.8% and a cell viability (HeyA8) of 68.9 ± 6.1%. It also gave a cell viability (H460) of 83 ± 13%.

Sequence UGAAGUUACAUGUAAACCAAA has a cell viability (3LL) of 42.5 ± 8.2%, a cell viability (M565) of 18.4 ± 3.1% and a cell viability (HeyA8) of 39 ± 2.1%. For the same sequence, the cell viability (H460) was 58 ± 8.7%.

UUACACAACAUGUAAACCAAA showed a cell viability (3LL) of 97.8 ± 9.5%, a cell viability (M565) of 73.2 ± 14% and a cell viability (HeyA8) of 104 ± 3.1%. It also gave a cell viability (H460) of 66.5 ± 1.4%.

With UAACAUUACAUGUAAACCAAA the cell viability (3LL) was 89.8 ± 6.7%, the cell viability (M565) was 77 ± 7% and the cell viability (HeyA8) was 77.4 ± 7.5%. For the same sequence, the cell viability (H460) was 61.4 ± 9.1%.

Work on UAGCUUGACAUGUAAACCAAA yielded a cell viability (3LL) of 58.7 ± 7%, a cell viability (M565) of 59.1 ± 10% and a cell viability (HeyA8) of 57.1 ± 3.3%. It also gave a cell viability (H460) of 69 ± 12%.

Sequence UUCGUACACAUGUAAACCAAA has a cell viability (3LL) of 74.1 ± 10%, a cell viability (M565) of 46.9 ± 9.2% and a cell viability (HeyA8) of 72.2 ± 4.8%. The cell viability (H460) was 65.4 ± 15%.

UCUCCAAACAUGUAAACCAAA was tested, and the cell viability (3LL) was 91.8 ± 12%, the cell viability (M565) was 65.4 ± 13% and the cell viability (HeyA8) was 85.3 ± 8.5%. It also gave a cell viability (H460) of 56.9 ± 6.5%.

For UAUUUGCACAUGUAAACCAAA, the cell viability (3LL) was 39.4 ± 9.7%, the cell viability (M565) was 55.9 ± 5.5% and the cell viability (HeyA8) was 63.9 ± 5.2%. The cell viability (H460) was 82.5 ± 10%.

Sequence UCCUACCACAUGUAAACCAAA has a cell viability (3LL) of 44.7 ± 16%, a cell viability (M565) of 8.9 ± 1.1% and a cell viability (HeyA8) of 30.8 ± 1.6%. It also gave a cell viability (H460) of 45.8 ± 7%.

With UGCGAUAACAUGUAAACCAAA the cell viability (3LL) was 92.2 ± 13%, the cell viability (M565) was 75.8 ± 4.5% and the cell viability (HeyA8) was 92.3 ± 10%. The cell viability (H460) was 88.7 ± 9.1%.

In the case of UAGUUUUACAUGUAAACCAAA, the cell viability (3LL) is reported as 96.5 ± 4.8%, the cell viability (M565) is reported as 75.2 ± 9.6% and the cell viability (HeyA8) is reported as 64.6 ± 1.8%. The cell viability (H460) was 61.9 ± 5.1%.

UAACAGAACAUGUAAACCAAA showed a cell viability (3LL) of 95 ± 11%, a cell viability (M565) of 70.3 ± 6.2% and a cell viability (HeyA8) of 96.3 ± 2.3%. It also gave a cell viability (H460) of 69.8 ± 8%.

UCCACCCACAUGUAAACCAAA showed a cell viability (3LL) of 56.7 ± 15%, a cell viability (M565) of 44.5 ± 9.5% and a cell viability (HeyA8) of 35.3 ± 7.1%. For the same sequence, the cell viability (H460) was 39.1 ± 6.8%.

In the case of UCCUGGCACAUGUAAACCAAA, the cell viability (3LL) is reported as 30.1 ± 6.1%, the cell viability (M565) is reported as 8.76 ± 0.79% and the cell viability (HeyA8) is reported as 9.86 ± 0.21%. It also gave a cell viability (H460) of 17.7 ± 2.6%.

Sequence UUGAUGAACAUGUAAACCAAA has a cell viability (3LL) of 79.9 ± 5.9%, a cell viability (M565) of 104 ± 7.4% and a cell viability (HeyA8) of 71.2 ± 10%. The cell viability (H460) was 66 ± 7.6%.

UGCCCGGACAUGUAAACCAAA showed a cell viability (3LL) of 38.3 ± 2.8%, a cell viability (M565) of 25.4 ± 3% and a cell viability (HeyA8) of 63.5 ± 3.5%. It also gave a cell viability (H460) of 65.6 ± 8.1%.

For UGCGUAGACAUGUAAACCAAA, the cell viability (3LL) was 85.8 ± 9.3%, the cell viability (M565) was 60.38 ± 0.42% and the cell viability (HeyA8) was 88.4 ± 9.3%. The cell viability (H460) was 76.8 ± 7.6%.

UAUGUCCACAUGUAAACCAAA was tested, and the cell viability (3LL) was 17.1 ± 2.6%, the cell viability (M565) was 18.3 ± 4.6% and the cell viability (HeyA8) was 34.1 ± 6.3%. The cell viability (H460) was 42.9 ± 3.1%.

With UGAUUGUACAUGUAAACCAAA the cell viability (3LL) was 94.8 ± 19%, the cell viability (M565) was 96.5 ± 4.9% and the cell viability (HeyA8) was 36.6 ± 4.7%. It also gave a cell viability (H460) of 60.6 ± 17%.

UGCCGCGACAUGUAAACCAAA showed a cell viability (3LL) of 49.6 ± 2.2%, a cell viability (M565) of 25.9 ± 3.8% and a cell viability (HeyA8) of 73.2 ± 4.6%. It also gave a cell viability (H460) of 82.8 ± 7.3%.

Work on UCCGCUCACAUGUAAACCAAA yielded a cell viability (3LL) of 80 ± 13%, a cell viability (M565) of 92.4 ± 14% and a cell viability (HeyA8) of 23.1 ± 2.4%. The cell viability (H460) was 49.1 ± 5.9%.

For UUCUUUUACAUGUAAACCAAA, the cell viability (3LL) was 104 ± 10%, the cell viability (M565) was 115 ± 3.5% and the cell viability (HeyA8) was 92.4 ± 7.5%. For the same sequence, the cell viability (H460) was 69.5 ± 4.5%.

With UUAUUUGACAUGUAAACCAAA the cell viability (3LL) was 98.6 ± 7.5%, the cell viability (M565) was 110 ± 11% and the cell viability (HeyA8) was 94.7 ± 2.9%. It also gave a cell viability (H460) of 76.6 ± 5.5%.

For UUCGGACACAUGUAAACCAAA, the cell viability (3LL) was 10.8 ± 5.4%, the cell viability (M565) was 41.6 ± 4.7% and the cell viability (HeyA8) was 51.1 ± 4.5%. It also gave a cell viability (H460) of 39.8 ± 3.5%.

UGUGAAGACAUGUAAACCAAA was tested, and the cell viability (3LL) was 90.1 ± 3.7%, the cell viability (M565) was 62.8 ± 6.1% and the cell viability (HeyA8) was 69.4 ± 0.8%. It also gave a cell viability (H460) of 58.6 ± 4.8%.

In the case of UAGACUGACAUGUAAACCAAA, the cell viability (3LL) is reported as 89.1 ± 6%, the cell viability (M565) is reported as 48.2 ± 5.2% and the cell viability (HeyA8) is reported as 87 ± 28%. The cell viability (H460) was 70.3 ± 14%.

UCGCUUCACAUGUAAACCAAA showed a cell viability (3LL) of 76.6 ± 19%, a cell viability (M565) of 29.7 ± 3% and a cell viability (HeyA8) of 50.1 ± 2.2%. The cell viability (H460) was 60 ± 7.6%.
